From article PMC6919601, “Identification of Plasmodium dipeptidyl aminopeptidase allosteric inhibitors by high throughput screening” (PLoS ONE, 2019)
“And” between values parts separate entries of the source, which are not always exact repeats. Equal entries are not always repeated. Among all 110,000 compounds or so, about 230 (0.21%) showed an effect of 50% or more. The list shows a part of the results.

target: DPAP1 (Plasmodium falciparum, UniProt Q8IIJ9); assay: primary screen, percent inhibition; read by cleavage of a fluorogenic dipeptide substrate; higher = more effect of the substance; design: species or system P. falciparum D10 trophozoite lysates; single well
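Note: 30 min substrate incubation versus DMSO and 10 µM JCP410 controls.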

DPAP1, sequence (Q8IIJ9 whole entry, looked up): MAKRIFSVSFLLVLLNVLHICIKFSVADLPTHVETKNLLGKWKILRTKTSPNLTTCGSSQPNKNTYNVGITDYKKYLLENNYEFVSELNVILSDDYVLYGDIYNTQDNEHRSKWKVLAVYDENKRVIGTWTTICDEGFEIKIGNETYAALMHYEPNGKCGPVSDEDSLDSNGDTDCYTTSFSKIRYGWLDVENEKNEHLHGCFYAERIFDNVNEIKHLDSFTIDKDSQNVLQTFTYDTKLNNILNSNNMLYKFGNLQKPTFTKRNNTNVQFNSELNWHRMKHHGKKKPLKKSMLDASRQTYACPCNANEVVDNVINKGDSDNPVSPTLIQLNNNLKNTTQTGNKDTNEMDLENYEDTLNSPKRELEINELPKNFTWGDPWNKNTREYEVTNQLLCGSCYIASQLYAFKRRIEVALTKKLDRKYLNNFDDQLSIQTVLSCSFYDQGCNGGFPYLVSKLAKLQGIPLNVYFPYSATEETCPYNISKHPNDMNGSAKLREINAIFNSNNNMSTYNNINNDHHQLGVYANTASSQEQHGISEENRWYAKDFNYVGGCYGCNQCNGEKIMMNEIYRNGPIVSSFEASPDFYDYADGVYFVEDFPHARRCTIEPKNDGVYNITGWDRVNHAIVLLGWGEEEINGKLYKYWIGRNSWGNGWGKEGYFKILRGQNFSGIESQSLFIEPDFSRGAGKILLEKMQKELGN

Row | Structure (SMILES) | % Inhibition @ 10 uM
1 | CN(C)C(=O)Cc1ccc2c3c(cccc13)CC2 | 4.38%
2 | O=C(OCc1ccccc1F)c1ccc(-n2nnnc2Cc2ccccc2F)cc1 | 4.57%
3 | COc1cc(C(=O)N2CCN(Cc3ccc(OC)c(OC)c3OC)CC2)cc(OC)c1OC | 2.26%
4 | Cc1cccc2c(C(=O)O)cc(C(=O)O)nc12 | 1.64%
5 | O=C1C2C3C=CC(C2C(=O)N1c1nn[nH]n1)C1C(=O)N(c2nnn[nH]2)C(=O)C31 (stereo not shown) | -2.42%
6 | COc1ccc(-c2nc(CS(=O)CC(=O)NCCc3ccc(OC)c(OC)c3)c(C)o2)cc1 (stereo not shown) | 2.37%
7 | CNC(=O)C1CCCN(c2nn3cc(-c4ccc(C)cc4)nc3s2)C1 (stereo not shown) | -6.76%
8 | COc1cccc(-c2nc(SCCOc3ccccc3C)n3[nH]c(=O)cc3n2)c1 | -0.678%
9 | C=CCc1ccccc1OCc1nc2ccccc2n1CC=C | -4.75%
10 | N#CC(=C1Nc2ccccc2N1)S(=O)(=O)c1ccccc1 | -2.07%
11 | CC(C)C[C@H](NC(=O)OCc1cccc(OCc2ccccc2)c1)C(=O)NCC#N | -4.72%
12 | Cc1ccc(NC(=O)CN(c2ccc(C(C)C)cc2)S(C)(=O)=O)cc1 | -3.18%
13 | Cc1ccc(/C=C2/C(=N)N3C(=NC2=O)SN=C3S(=O)(=O)C(C)C)cc1 | -3.39%
14 | Cc1cc(C)c2c(N)c(C(=O)Nc3ccc(Br)cc3)sc2n1 | 1.96%
15 | CC1=C(C(=O)Nc2ccc(Br)cc2)C(c2ccc3c4c(cccc24)CC3)NC(S)=N1 (stereo not shown) | -0.233%
16 | COc1cccc(CSc2nc3ccccc3c3nc(C)nn23)c1 | 2.24%
17 | COc1cc(C(=O)NCc2nnc(SCC(=O)NC3CCCCC3)o2)cc(OC)c1OC | 1.64%
18 | C#CCOc1c(Cl)cc(C2C3=C(CCCC3=O)N(CCC(=O)O)C3=C2C(=O)CCC3)cc1OC | -7.08%
19 | Cc1ccc(C2=NN=C(NC(=O)CSc3ccccc3)SC2)cc1 | -4.07%
20 | O=C(NC1CCCC1)c1ccc2c(c1)sc1nc(-c3ccccc3)cn12 | 2.46%
21 | CN(CC(=O)Nc1ccc(Oc2ccccc2)cc1)S(=O)(=O)c1ccc(Cl)cc1 | 3.65%
22 | COCCNC(=O)Cn1c(=O)n(CCCC(=O)NCc2ccco2)c(=O)c2sccc21 | -4.43%
23 | CC[C@H](NC(=O)C(Cc1nccs1)NC(=O)c1ccc(-c2ccccc2Cl)cc1)C(=O)c1nc2ccccc2o1 (stereo partly shown) | -0.207%
24 | C/C=C/Cn1c(N2CCCCCC2)nc2c1c(=O)[nH]c(=O)n2C | -2.84%
25 | O=C(COc1ccc2ccccc2c1)Nc1nc(-c2ccccc2)cs1 | -2.07%

Row | Structure (SMILES) | % Inhibition @ 10 uM
26 | C1=C(N2CCCC2)Cc2ccccc21 | 0.317%
27 | CCOC(=O)c1cnc2c(OC)cccc2c1N1CCN(c2ccccn2)CC1 | -2.4%
28 | Cc1ccc(OCC(=O)Nc2sc3c(c2C(N)=O)CCCC3)cc1 | -1.49%
29 | Fc1ccc(CN2CCN(c3cccc(Cl)c3)CC2)cc1F | -0.127%
30 | COc1ccc(OC)c(C2=NOC(C(=O)N3CC4(C)CC3CC(C)(C)C4)C2)c1 (stereo not shown) | 1.24%
31 | CCOc1ccc(C2CC(=O)N3C(=C2C#N)SCC3(O)c2ccc(OCC)cc2)cc1 (stereo not shown) | -0.0235%
32 | C=CCSc1nc(N)c(C#N)cc1C#N | -0.828%
33 | CCOC(=O)c1c(NC(=O)c2cccs2)sc2c1CCN(C(=O)OCC)C2 | 2.8%
34 | CC(C)(C)C(=O)/C(=C/c1ccc(Cl)cc1)n1cncn1 | -3.49%
35 | COc1cc(C(=O)Nc2ccc3nn(-c4ccc(C)cc4)nc3c2)cc(OC)c1OC | -7.25%
36 | COc1ccc(-c2cc(C(=O)NCC(C)C)c3ccccc3n2)cc1 | -2.46%
37 | O=C(O)C1Cc2c([nH]c3ccccc23)CN1 (stereo not shown) | 4.54% and -2.88%
38 | Oc1ccccc1-c1nc2c3ccccc3nc(S)n2n1 | 7.7%
39 | COc1cccc(N(CC(=O)NC2CCCCC2)S(=O)(=O)c2ccc(C)cc2)c1 | 5.54%
40 | CO/C(O)=C1\C(C)=NC2=C(C(=O)CC(c3cccs3)C2)C1c1ccc2c(c1)OCO2 (stereo not shown) | 2.26%
41 | O=C(NCc1ccccc1)C(c1ccc(F)cc1)N(Cc1ccco1)C(=O)Cn1nnc2ccccc21 (stereo not shown) | -8.69%
42 | OC1=C2C(=Nc3ccccc3NC2c2ccccc2F)CC(c2cccs2)C1 (stereo not shown) | 2.36%
43 | COc1cc(OC)cc(C2NCCc3c2[nH]c2ccccc32)c1 (stereo not shown) | 1.26%
44 | COc1cc(C(=O)Nc2ccc3c(c2)C(=O)N(C)C3=O)ccc1OCc1ccc(Cl)cc1 | -1.88%
45 | O=C1CCCC2=C1C(NC(=O)C1CC1)(C(F)(F)F)C(=O)N2Cc1ccccc1 (stereo not shown) | 1.91%
46 | Cc1cc(NCCCn2ccnc2)n2c(nc3ccccc32)c1C#N | -1.08%
47 | Cc1ccc(/C=C(/NC(=O)c2ccc(C)cc2)C(=O)N2CCOCC2)cc1 | -6.27%
48 | COc1ccc(CCn2c(=O)c3cccnc3n(Cc3ccc(C#N)cc3)c2=O)cc1OC | -5.27%
49 | CC(C)OCc1nc(O)c2c(n1)-c1ccccc1CC21CCCCC1 | 6.39%
50 | CCCCCc1ccc(-c2ccc(OC(F)F)cc2)nc1 | 1.4%

Row | Structure (SMILES) | % Inhibition @ 10 uM
51 | O=C(CN1C(=O)c2ccccc2C1=O)NCc1cc([N+](=O)[O-])ccc1O | -1.29%
52 | N#CC1=C(N)Oc2[nH]nc(-c3ccc(F)cc3)c2C12C(=O)Nc1ccccc12 (stereo not shown) | -1.06%
53 | Fc1ccc(Cn2c(N3CCOCC3)nc3ccccc32)cc1 | -5.53%
54 | CCCO/C(O)=C1\C(C)=NC2=C(C(=O)CC(C)(C)C2)C1c1ccccc1OCC (stereo not shown) | 0.736%
55 | CCOc1cccc2c1OC1(CCCCC1)N1N=C(c3ccccc3)CC21 (stereo not shown) | -5.4%
56 | CCc1nnc(NC(=O)c2cc3c(=O)oc4ccc(C)cc4c3s2)s1 | -3.68%
57 | Cn1c(=O)cc(NCCc2ccccc2)[nH]c1=O | 8.91%
58 | COc1cccc(-c2nc3nc(C)c(CCC(=O)NCC4CCCO4)c(C)n3n2)c1 (stereo not shown) | -8.02%
59 | O=C(O)CCC(=O)/N=C1\SC2CS(=O)(=O)CC2N1Cc1ccccc1 (stereo not shown) | -2.92%
60 | COc1ccc(NC(=O)c2ccc([N+](=O)[O-])cc2)cc1OC | -2.78%
61 | Cc1ccc(OCC(=O)Nc2cc(C)ccc2C)c(C)c1 | -4.15%
62 | CCCCOc1ccccc1C1C2=C(O)CCCC2=NC(C)=C1C(=O)Nc1ccccc1OC (stereo not shown) | -0.99%
63 | CCn1cc(C(=O)OCC(=O)c2ccc(C)cc2)c(=O)c2ccc(C)nc21 | 1.84%
64 | COCc1c(C)cc(C)c(/C=N/O)c1C | 3.42%
65 | COC(=O)C1=C(N)Oc2c(oc(CO)cc2=O)C1c1ccc(C(=O)OC)cc1 (stereo not shown) | 4.97%
66 | Cc1cccc(-n2nc3c(c2NC(=O)c2ccco2)CS(=O)(=O)C3)c1C | 2.21%
67 | CC(C)CNS(=O)(=O)c1ccc(CCC(=O)NC(C)C)cc1 | 1.27%
68 | CCC(C)NC(=O)Cn1cc2c(n1)-c1c(oc(C(=O)N3CCOCC3)c1C)CC2 (stereo not shown) | 0.616%
69 | CC1(C)C(c2ccco2)=[N+]([O-])C(C)(C)N1O | -1.6%
70 | Oc1ccccc1CN1CCCCCCC1 | -1.21%
71 | CC(=O)c1ccc(NC(=O)c2scc3c2CCCC3)cc1 | 3.06%
72 | CCCNC(=O)C(C)n1nc(C)n2c(cc3sccc32)c1=O (stereo not shown) | -11.1%
73 | CC(C)CC(NC(=O)c1ccc(N(C)C)cc1)C(=O)NCC#N (stereo not shown) | -7.58%
74 | CCN1CCCC1CNC(=O)c1ccc2c(Cl)c3c(nc2c1)CCCC3 (stereo not shown) | -2.45%
75 | CCN(CC)C(=O)C1CCCN(C2CCN(Cc3ccccc3)CC2)C1 (stereo not shown) | 1.57%

Row | Structure (SMILES) | % Inhibition @ 10 uM
76 | COc1ccc(Cl)cc1C(=O)Nc1c2c(nn1-c1ccc(C)cc1)CS(=O)(=O)C2 | -1.75%
77 | Cc1ccc(NC(=O)c2cc(F)c(Cl)nc2Cl)cc1C | 1.93%
78 | COc1ccc(N(CC(=O)Nc2cccc(Cl)c2C)S(C)(=O)=O)c(OC)c1 | -5.23%
79 | COc1ccc(Cc2c(C)nc3ccc(OC)cc3c2Cl)cc1 | -0.158%
80 | COc1ccc(NC(=O)c2c(NC(=O)CNCc3ccccc3)sc3c2CCC3)cc1 | -14.3%
81 | CCOc1ccccc1/C=c1\sc2nc(-c3ccccc3C)nn2c1=O | 0.561%
82 | COc1ccccc1/N=C1\SC(C(=O)Nc2ccccc2)CC(=O)N1C (stereo not shown) | 5.31%
83 | COc1ccc(C2CC(c3ccc(OC(F)F)cc3)n3nnnc3N2)cc1 (stereo not shown) | 0.0842%
84 | COc1ccc(-c2nc3scc(CCNC(=O)c4ccc(C(C)(C)C)cc4)n3n2)cc1 | 7.61%
85 | Cc1cc([N+](=O)[O-])ccc1NC(=O)C(c1ccccc1)c1ccccc1 | 0.98%
86 | COc1ccc(-c2c3c(nn2-c2ccccc2)CC(C)(C)CC3=O)cc1 | 0.275%
87 | CCC(C)c1ccc(C(=O)N[C@@H](CC(C)C)C(=O)NCC#N)cc1 (stereo partly shown) | -6.46%
88 | Cn1c2c(c(=O)n(C)c1=O)C1(C(=O)Nc3ccc(Br)cc31)C(C#N)=C(N)O2 (stereo not shown) | 1.64%
89 | OC1=C2Sc3ccccc3N=C2CCC1 | 3.25%
90 | N#CCNC(=O)[C@H](CC1CCCCC1)NC(=O)C1=CCCCC1 | -1.83%
91 | Cc1ccc(OCCCCCCN2CCNCC2)c(Br)c1 | 4.57%
92 | Cc1ccc(C(=O)NC2CCCCCC2)o1 | -1.63%
93 | Cc1ccc(N2CC(C(=O)O)CC2=O)cc1C (stereo not shown) | 5.77%
94 | CC(=O)c1c(C)oc2c1cc(NS(=O)(=O)c1ccccc1)c1ccccc12 | -2.55%
95 | CCCn1c(SCC(C)C)nc2c1c(=O)[nH]c(=O)n2C | -6.7%
96 | CCOC(=O)N1CCN(Cc2nc3c(c(=O)[nH]c(=O)n3C)n2CCCc2ccccc2)CC1 | -2.92%
97 | COc1cccc(Cn2c(=O)n(C(C)C)c(=O)c3oc4ccccc4c32)c1 | 1.91%
